From the supplement of paper PMC8728848
Some of the results follow.

What was measured:
Test in all cases: glycan array binding signal (z-score within array); higher = stronger binding
Conditions in all cases: glycan notation: IUPAC condensed, linker removed
[1] = molecular target: GlcNAc(b1-3)Gal(b1-4)GlcNAc(b1-3)Gal(b1-4)GlcNAc(b1-3)Gal(b1-4)GlcNAc(b1-3)Gal(b1-4)GlcNAc(b1-2)[GlcNAc(b1-3)Gal(b1-4)GlcNAc(b1-3)Gal(b1-4)GlcNAc(b1-3)Gal(b1-4)GlcNAc(b1-3)Gal(b1-4)GlcNAc(b1-6)]Man(a1-6)[GlcNAc(b1-3)Gal(b1-4)GlcNAc(b1-3)Gal(b1-4)GlcNAc(b1-3)Gal(b1-4)GlcNAc(b1-3)Gal(b1-4)GlcNAc(b1-2)Man(a1-3)]Man(b1-4)GlcNAc(b1-4)[Fuc(a1-6)]GlcNAc
In short: (§1)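 The Consortium for Functional Glycomics database supplied 3228 glycan arrays, of which those lacking an available protein sequence were dropped. The binding signal, a within-array Z-score, was averaged across arrays of the same protein sequence and across linkers. Negative scores can be read as non-binding.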

[2] = molecular target: GlcNAc(b1-3)Gal(b1-4)GlcNAc(b1-3)Gal(b1-4)GlcNAc(b1-3)GalNAc
In short: as §1

[3] = molecular target: GlcNAc(b1-3)Gal(b1-4)GlcNAc(b1-3)GalNAc
In short: as §1

[4] = molecular target: GlcNAc(b1-3)Gal(b1-4)GlcNAc(b1-3)[GlcNAc(b1-3)Gal(b1-4)GlcNAc(b1-3)]GalNAc
In short: as §1

[5] = molecular target: GlcNAc(b1-3)Gal(b1-4)GlcNAc(b1-6)[Gal(b1-3)]GalNAc
In short: as §1

[6] = molecular target: GlcNAc(b1-3)Gal(b1-4)GlcNAc(b1-6)[GlcNAc(b1-3)Gal(b1-3)]GalNAc
In short: as §1

[7] = molecular target: GlcNAc(b1-3)Gal(b1-4)GlcNAc(b1-6)[GlcNAc(b1-3)]Gal(b1-4)GlcNAc
In short: as §1

GlcNAc(b1-3)GalNAc = molecular target: GlcNAc(b1-3)GalNAc
In short: as §1

GlcNAc(b1-3)Man = molecular target: GlcNAc(b1-3)Man
In short: as §1

[8] = molecular target: GlcNAc(b1-3)[GlcNAc(b1-4)][GlcNAc(b1-6)]GlcNAc
In short: as §1

[9] = molecular target: GlcNAc(b1-3)[GlcNAc(b1-6)]Gal(b1-4)GlcNAc
In short: as §1

[10] = molecular target: GlcNAc(b1-3)[GlcNAc(b1-6)]GalNAc
In short: as §1

[11] = molecular target: GlcNAc(b1-4)Gal(b1-4)GlcNAc
In short: as §1

GlcNAc(b1-4)GlcNAc = molecular target: GlcNAc(b1-4)GlcNAc
In short: as §1

[12] = molecular target: GlcNAc(b1-4)GlcNAc(b1-4)GlcNAc
In short: as §1

[13] = molecular target: GlcNAc(b1-4)GlcNAc(b1-4)GlcNAc(b1-4)GlcNAc(b1-4)GlcNAc
In short: as §1

[14] = molecular target: GlcNAc(b1-4)GlcNAc(b1-4)GlcNAc(b1-4)GlcNAc(b1-4)GlcNAc(b1-4)GlcNAc
In short: as §1

[15] = molecular target: GlcNAc(b1-4)[GlcNAc(b1-6)]GalNAc
In short: as §1

[16] = molecular target: GlcNAc(b1-6)Gal(b1-4)GlcNAc
In short: as §1

GlcNAc(b1-6)GalNAc = molecular target: GlcNAc(b1-6)GalNAc
In short: as §1

[17] = molecular target: GlcNAc6S(b1-3)Gal(b1-4)GlcNAc
In short: as §1

Kdn(a2-3)Gal(b1-3)GalNAc = molecular target: Kdn(a2-3)Gal(b1-3)GalNAc
In short: as §1

Kdn(a2-3)Gal(b1-3)GlcNAc = molecular target: Kdn(a2-3)Gal(b1-3)GlcNAc
In short: as §1

Kdn(a2-3)Gal(b1-4)Glc = molecular target: Kdn(a2-3)Gal(b1-4)Glc
In short: as §1

Kdn(a2-3)Gal(b1-4)GlcNAc = molecular target: Kdn(a2-3)Gal(b1-4)GlcNAc
In short: as §1

[18] = molecular target: Kdn(a2-3)Gal(b1-4)[Fuc(a1-3)]GlcNAc
In short: as §1

Kdn(a2-6)Gal(b1-4)GlcNAc = molecular target: Kdn(a2-6)Gal(b1-4)GlcNAc
In short: as §1

[19] = molecular target: Man(a1-2)Man(a1-2)Man(a1-3)Man
In short: as §1

[20] = molecular target: Man(a1-2)Man(a1-2)Man(a1-6)[Man(a1-3)]Man
In short: as §1

Man(a1-2)Man(a1-3)Man = molecular target: Man(a1-2)Man(a1-3)Man
In short: as §1

[21] = molecular target: Man(a1-2)Man(a1-3)[Man(a1-2)Man(a1-6)]Man
In short: as §1

[22] = molecular target: Man(a1-2)Man(a1-3)[Man(a1-2)Man(a1-6)]Man(a1-6)[Man(a1-2)Man(a1-2)Man(a1-3)]Man
In short: as §1

[23] = molecular target: Man(a1-2)Man(a1-3)[Man(a1-2)Man(a1-6)]Man(a1-6)[Man(a1-2)Man(a1-2)Man(a1-3)]Man(b1-4)GlcNAc(b1-4)GlcNAc
In short: as §1

[24] = molecular target: Man(a1-2)Man(a1-3)[Man(a1-6)]Man(a1-6)[Man(a1-2)Man(a1-3)]Man(b1-4)GlcNAc(b1-4)GlcNAc
In short: as §1

[25] = molecular target: Man(a1-2)Man(a1-6)[Man(a1-3)]Man(a1-6)[Man(a1-2)Man(a1-2)Man(a1-3)]Man
In short: as §1

[26] = molecular target: Man(a1-2)Man(a1-6)[Man(a1-3)]Man(a1-6)[Man(a1-2)Man(a1-2)Man(a1-3)]Man(b1-4)GlcNAc(b1-4)GlcNAc
In short: as §1

Man(a1-3)[Man(a1-6)]Man = molecular target: Man(a1-3)[Man(a1-6)]Man
In short: as §1

B1: Epa6 (Candida glabrata), Q6DTM7_CANGB (protein)
chain: MGSSHHHHHHSSGLVPRGSHMKDDYSSSLSNNNLGWTDPTEFPLGCSPNVTTPKNGLSMELYSYDYLKSGSNPCWDAAYLDPNYPRTGYKSHRLLAKVENVAGNINFYYHAPMGCTSLFDTLPQAYNYRTPLTMTNFTMLLYGYFKPKVTGYHTFTISADDLLFVNFGAGNAFDCCKRESSADDFGNYQAYAVWGSQTAKDDLTVHLDAGLYYPIRIFFNNRDNDGALSLTLKTESDPNPVIDFSDYFYSFDDTKDGCPGLVSYDTS
glycan array binding signal (z-score) [1]: -0.28
glycan array binding signal (z-score) [2]: -0.287
glycan array binding signal (z-score) [3]: -0.342
glycan array binding signal (z-score) [4]: -0.306
glycan array binding signal (z-score) [5]: 0.28
glycan array binding signal (z-score) [6]: -0.266
glycan array binding signal (z-score) [7]: -0.323
glycan array binding signal (z-score) (GlcNAc(b1-3)GalNAc): -0.306
glycan array binding signal (z-score) (GlcNAc(b1-3)Man): -0.263
glycan array binding signal (z-score) [8]: -0.315
glycan array binding signal (z-score) [9]: -0.331
glycan array binding signal (z-score) [10]: -0.274
glycan array binding signal (z-score) [11]: -0.357
glycan array binding signal (z-score) (GlcNAc(b1-4)GlcNAc): -0.312
glycan array binding signal (z-score) [12]: -0.334
glycan array binding signal (z-score) [13]: -0.283
glycan array binding signal (z-score) [14]: -0.277
glycan array binding signal (z-score) [15]: -0.349
glycan array binding signal (z-score) [16]: -0.097
glycan array binding signal (z-score) (GlcNAc(b1-6)GalNAc): -0.302
glycan array binding signal (z-score) [17]: -0.064
glycan array binding signal (z-score) (Kdn(a2-3)Gal(b1-3)GalNAc): -0.212
glycan array binding signal (z-score) (Kdn(a2-3)Gal(b1-3)GlcNAc): -0.254
glycan array binding signal (z-score) (Kdn(a2-3)Gal(b1-4)Glc): -0.252
glycan array binding signal (z-score) (Kdn(a2-3)Gal(b1-4)GlcNAc): -0.133
glycan array binding signal (z-score) [18]: -0.178
glycan array binding signal (z-score) (Kdn(a2-6)Gal(b1-4)GlcNAc): -0.277
glycan array binding signal (z-score) [19]: -0.232
glycan array binding signal (z-score) [20]: -0.308
glycan array binding signal (z-score) (Man(a1-2)Man(a1-3)Man): -0.286
glycan array binding signal (z-score) [21]: -0.325
glycan array binding signal (z-score) [22]: -0.287
glycan array binding signal (z-score) [23]: -0.229
glycan array binding signal (z-score) [24]: -0.282
glycan array binding signal (z-score) [25]: -0.315
glycan array binding signal (z-score) [26]: -0.347
glycan array binding signal (z-score) (Man(a1-3)[Man(a1-6)]Man): -0.311
